Data reported in the RNAGym collection of RNA variant scans (doi:10.1073/pnas.2313332121).
This sample is rich in variants without activity.

B1: TPR 5TU (parent)
chain: GGAUCUUCUCGAUCUAACAAAAAAGACAAAUCUGCCACAAAGCUUGAGAGCAUCUUCGGAUGCAGAGGCGGCAGCCUUCGGUGGCGCGAUAGCGCCAACGUUCUCAACUAUGACACGCAAAACGCGUGCUCCGUUGAAUGGAGUUUAUCAUG

Variants of: B1
Assay: polymerase ribozyme fitness, log enrichment relative to wild type (log ratio); higher = more active; in vitro selection for triplet polymerase activity
In short: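 Each subunit of a heterodimeric triplet polymerase ribozyme was represented by a PCR-built, transcribed mutant library that underwent triplicate single-round in vitro selection with frozen incubation at −7 °C. Extended constructs were recovered by gel excision, streptavidin-bead capture and RT-PCR, and Illumina sequencing of input and output libraries kept genotypes with ≥10 input reads and ≥1 read per output. Fitness is the logarithm of genotype enrichment relative to wild-type enrichment, from inverse-variance-weighted replicate averages, with a logarithm base of 2.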

C38G G42C U82G G86C G141C U144G and A37G U53C U90G A110U A137C cannot be ordered by “polymerase ribozyme fitness (log ratio)” value: ≤ -4.2 for the first, ≤ -4.2 for the second.

C38A A73C C75G A120C and C36A U56A C57A A122G U127C cannot be ordered by “polymerase ribozyme fitness (log ratio)” value: ≤ -4.2 for the first, ≤ -4.2 for the second.

Going from C38G C85U A89C to C36U C69G A73G C87A G100U G112C G141C, the “polymerase ribozyme fitness (log ratio)” value falls from -1.86 to ≤ -4.2.

C38U G58U C85U C108A U134A U144C and A39C G84U U90A U111C U146C cannot be ordered by “polymerase ribozyme fitness (log ratio)” value: ≤ -4.2 for the first, ≤ -4.2 for the second.

A39G A73U C87A and A37U C38U A91G G133U G141A cannot be ordered by “polymerase ribozyme fitness (log ratio)” value: ≤ -4.2 for the first, ≤ -4.2 for the second.

C38G G67A C79G U90G and A37C U53A U78A C85A cannot be ordered by “polymerase ribozyme fitness (log ratio)” value: ≤ -4.2 for the first, ≤ -4.2 for the second.

A39C A64C C93U and A37C U53G U55G C95U U127G G136A cannot be ordered by “polymerase ribozyme fitness (log ratio)” value: ≤ -4.2 for the first, ≤ -4.2 for the second.

C38U A41G A52C U82C G84A A89C C96G C103G A106U G136A and A37C A47C G59U A107G G124U cannot be ordered by “polymerase ribozyme fitness (log ratio)” value: ≤ -4.2 for the first, ≤ -4.2 for the second.

First: C36U U55G A73C G86U G94U A113C
Second: C38A G58U C95G
The “polymerase ribozyme fitness (log ratio)” value of the first is lower: ≤ -4.2 for the first, -1.52 for the second.

A39C G84A C87G G94U C103G A150C and C36G C76U C87U A91C A97U U109C A142C cannot be ordered by “polymerase ribozyme fitness (log ratio)” value: ≤ -4.2 for the first, ≤ -4.2 for the second.

A39G C51U U56A U77A G81C G94A C99G A107G G141U U145A G152U and C36U U55A U61A A66C G84C U145G cannot be ordered by “polymerase ribozyme fitness (log ratio)” value: ≤ -4.2 for the first, ≤ -4.2 for the second.

C36G C87G A91C A98U C114U A119U A122G and C36U C54G A66C G84U C95A U101G cannot be ordered by “polymerase ribozyme fitness (log ratio)” value: ≤ -4.2 for the first, ≤ -4.2 for the second.

Compared with C38U C57A C63U C95U A98U C99G, C36G A52C U53A A73U C85U C131U is lower in “polymerase ribozyme fitness (log ratio)” value: -1.54 for the first, ≤ -4.2 for the second.

C36G A52C C116U U148A and C36G G80A U101A A138G cannot be ordered by “polymerase ribozyme fitness (log ratio)” value: ≤ -4.2 for the first, ≤ -4.2 for the second.

Going from C36U C76A C93A G117A U146G to C38U G62A C96U C129U, the “polymerase ribozyme fitness (log ratio)” value rises from ≤ -4.2 to -0.672.

A37C G86U A142U and C38U C54G C95A U104C C114A cannot be ordered by “polymerase ribozyme fitness (log ratio)” value: ≤ -4.2 for the first, ≤ -4.2 for the second.

C38U U61A G62A C85G G140U and C38U G80C C85U G100U cannot be ordered by “polymerase ribozyme fitness (log ratio)” value: ≤ -4.2 for the first, ≤ -4.2 for the second.

C38U G68A C85U C108G U146A and C38U G92U C95G A106U cannot be ordered by “polymerase ribozyme fitness (log ratio)” value: ≤ -4.2 for the first, ≤ -4.2 for the second.

A37G C54U C72A C85G and C38U U55A G80A G94C A110U A115U cannot be ordered by “polymerase ribozyme fitness (log ratio)” value: ≤ -4.2 for the first, ≤ -4.2 for the second.

Going from A37G G88U A137U to A37U U134G, the “polymerase ribozyme fitness (log ratio)” value rises from ≤ -4.2 to -2.86.

A37G G46A A47U C93G C114U and A39C G70A U82A C99U C114G U144C cannot be ordered by “polymerase ribozyme fitness (log ratio)” value: ≤ -4.2 for the first, ≤ -4.2 for the second.

First: C38U U78C C95U
Second: C36G G50A A89U
The “polymerase ribozyme fitness (log ratio)” value of the first is higher: -0.556 for the first, ≤ -4.2 for the second.

Compared with A39C A52G C123G, C38U A64U G65A C87U G141A is lower in “polymerase ribozyme fitness (log ratio)” value: -2.84 for the first, ≤ -4.2 for the second.

C36A G84A G124C and A39C C54G C93A cannot be ordered by “polymerase ribozyme fitness (log ratio)” value: ≤ -4.2 for the first, ≤ -4.2 for the second.

A39C A40C C96G C108A C123U C125G and A37G A52C U55A C57G G67A C69A G83A cannot be ordered by “polymerase ribozyme fitness (log ratio)” value: ≤ -4.2 for the first, ≤ -4.2 for the second.

A39C U53A G68A A89C and A39C G81A C99U C103G A107G C125U cannot be ordered by “polymerase ribozyme fitness (log ratio)” value: ≤ -4.2 for the first, ≤ -4.2 for the second.

C38U C63A G70A C76A and A39G C54A A91G G94A cannot be ordered by “polymerase ribozyme fitness (log ratio)” value: ≤ -4.2 for the first, ≤ -4.2 for the second.

Compared with C38A A47U C51A A60G C95A G141U, A37C A60C C85U G126C U146C is higher in “polymerase ribozyme fitness (log ratio)” value: ≤ -4.2 for the first, -2.23 for the second.

A37C G80C G92A C129A and A37U A52C G70C G84A G100C U139A cannot be ordered by “polymerase ribozyme fitness (log ratio)” value: ≤ -4.2 for the first, ≤ -4.2 for the second.

C38A G83A A107U C108A and A37G C95G C114U A119U A120G cannot be ordered by “polymerase ribozyme fitness (log ratio)” value: ≤ -4.2 for the first, ≤ -4.2 for the second.

C38G A89C C93A C95G U109C and A37C C87G G133U cannot be ordered by “polymerase ribozyme fitness (log ratio)” value: ≤ -4.2 for the first, ≤ -4.2 for the second.

C38U U55C A64U G94A C103A C125U and A37G U44C A122C G133C A150C cannot be ordered by “polymerase ribozyme fitness (log ratio)” value: ≤ -4.2 for the first, ≤ -4.2 for the second.

A39C C96G G141C U145C and A39C C96G A137U cannot be ordered by “polymerase ribozyme fitness (log ratio)” value: ≤ -4.2 for the first, ≤ -4.2 for the second.

A37C G70A C85A G92A C93A and A37G G48U G62U C63G C69U G84A C93U C108U G133U cannot be ordered by “polymerase ribozyme fitness (log ratio)” value: ≤ -4.2 for the first, ≤ -4.2 for the second.

Compared with A39C A52G, C38A C93G U151G is lower in “polymerase ribozyme fitness (log ratio)” value: -2.32 for the first, ≤ -4.2 for the second.

C36U A40U G68U A106C G140U and C38G U53C G67U G88A G133C G140U G143A cannot be ordered by “polymerase ribozyme fitness (log ratio)” value: ≤ -4.2 for the first, ≤ -4.2 for the second.

A39C G42C C76A U144G and C36U G50C C85A A110C cannot be ordered by “polymerase ribozyme fitness (log ratio)” value: ≤ -4.2 for the first, ≤ -4.2 for the second.

C36G A47G U55C G84U C149A and A39G A49C U55A A73G G88A G141A A147G cannot be ordered by “polymerase ribozyme fitness (log ratio)” value: ≤ -4.2 for the first, ≤ -4.2 for the second.

C38G A39C A73G G94A and A37C A47U G58A U61G A91G A107C A113G A138U cannot be ordered by “polymerase ribozyme fitness (log ratio)” value: ≤ -4.2 for the first, ≤ -4.2 for the second.

A37G U56A G88C C99U and A37G A52C U56A U111G U139C cannot be ordered by “polymerase ribozyme fitness (log ratio)” value: ≤ -4.2 for the first, ≤ -4.2 for the second.

Going from A39C G88C A97G C114G to C36U G62A C72U, the “polymerase ribozyme fitness (log ratio)” value rises from ≤ -4.2 to -3.23.

For C38A U56A G74C G92U U109G, the “polymerase ribozyme fitness (log ratio)” value was ≤ -4.2.
